First the molecules themselves.
B1: chr1:110121848:110121849:+_ENSG00000065135_ENST00000369851|hu_hu|FALSE|FALSE (ssRNA)
RNA: GGGAGUUCUACAGUCCGACGAUCCCGUUUAAUCACUCCUGCUAGUUCUGGAGUCAUGACUCCUUCUUCAGCACUGCCAGCUAAAACAAAUAAUUGCCGGGCAUCAUCUGCCCUGGCAGCUUCCCCAAAGUCAAUCUUUAGCCGCAACAGAGGAUUGAGCAUCA
B2: chr9:70409674:70409675:+_ENSMUSG00000032212_ENSMUST00000049263|mus_mus|FALSE|FALSE (ssRNA)
RNA: GGGAGUUCUACAGUCCGACGAUCUACAAAUUCCUGAGUUGUCUUGUUCUCUUCUGUAGAAAGCAACUCCUGGGAAUGCACAAUUUCCUCUUCAUUUUCACCAAAUUCUUCCAAGUCCUUUAGCUCUUCAUUUCCAUCUUGGUCCAACAGAGGAUUGAGCAUCA
B3: chr3:132387698:132387699:+_ENSG00000081307_ENST00000264991|hu_hu|motif|central (ssRNA)
RNA: GGGAGUUCUACAGUCCGACGAUCUUGAACUUUACUUAAUCCUGCUUGAUGAGGUUGGAAGAAAAGUCUAUUCAUAUUGGCGGGUUCCACCUUGUCAUAAUCAAAGAGUAGCAACUUACCAAUGCCACAUCUUGUCAGCAUUUCCAACAGAGGAUUGAGCAUCA
B4: chr8:95500983:95500984:-_ENSG00000164944_ENST00000437199|hu_hu|hu_hu_hu_mus_True|1_28 (ssRNA)
RNA: GGGAGUUCUACAGUCCGACGAUCAGAACACAUCUAUCGAGUAAAGGACCGUACAUGACGGCCUCUACCACUGCCUCCACUAACAAACUUUCCUCUCGAGCCUCCACCUGCCGCUAUUGUACUAGCCCAGGACGGUCCCAAGUCCAACAGAGGAUUGAGCAUCA
B5: chr17:45760540:45760541:+_ENSG00000108424_ENST00000290158|hu_mus|FALSE|FALSE (ssRNA)
RNA: GGGAGUUCUACAGUCCGACGAUCGCGCUGACCAUUCGUCAGUGUUUUCCCUAGAGUAAUUAAAAUGAAACCAAACCAAACCUAAACAGCGUCUUUCCUCAUUUAAAAAAAAAACACGUCUCUUGUGCUGCAUCAGUAGCCAGACAACAGAGGAUUGAGCAUCA
B6: chr11:46405157:46405158:+_ENSG00000110492_ENST00000395566|hu_hu|hu_hu_hu_mus_False|88_98 (ssRNA)
RNA: GGGAGUUCUACAGUCCGACGAUCCCCUCCCCACUUUGGCUGGGGAGUGAGAGGGACAGAGGACAGGCGUGAUUGACAGAGCUGACAGGAAGACAAAAGGCACUGGUGGGUUAUAUCUUGGGCCUGUGGGAGAGGAGGGCUCCGCAACAGAGGAUUGAGCAUCA

The list shows a part of the results.

The assay deals with T1, UNK ZnF1-3 (human, UniProt Q9C0B0 31-174).
T1 sequence: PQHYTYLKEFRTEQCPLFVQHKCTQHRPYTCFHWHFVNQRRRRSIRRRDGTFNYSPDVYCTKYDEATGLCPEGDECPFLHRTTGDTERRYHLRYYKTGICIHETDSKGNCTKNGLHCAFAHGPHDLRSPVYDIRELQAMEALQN
The assay can be described thus: nsRBNS (natural sequence RNA bind-n-seq); RBNS binding buffer (assumed for nsRBNS): 25 mM Tris pH 7.5, 150 mM KCl, 3 mM MgCl2, 0.01% Triton X-100, 500 ug/ml BSA, 20 U/ml SUPERase-In, 4 C; UNK is unkempt and MSI1 is Musashi-1; names of the RNAs are library labels; protein concentration not given here; high values mean tight binding.
For B1, the binding signal came out at 0.919 enrichment R. In the case of B2 it was 0.333 enrichment R; in that of B3, 0.935 enrichment R; in that of B4, 1.16 enrichment R.

In turn, B5 came in with a binding signal of 1.36 enrichment R. B6 showed a binding signal of 2.39 enrichment R.

The record behind these values is article PMC12136788.
